From PubChem BioAssay AID588855 (National Center for Advancing Translational Sciences (NCATS), 2011)
The whole screen tested about 410,000 compounds, of which about 5,000 (1.2%) were called active. The shares of active, inactive and inconclusive entries below differ from those in the screen. The call rests on the fitted dose curve; in most records, active means well fitted inhibition curve with a large enough effect; inconclusive means small, poorly fitted or top-dose-only effect; inactive means no such curve, though single readings can be large or run the other way. Potencies of inconclusive entries are doubtful fits and often do not repeat.
Potency means the concentration at half of the fitted maximal effect; tags describe the fitted curve by direction and shape.

Experiment: qHTS for Inhibitors of TGF-b; further: nearly all actives have a fitted effect of over 65% in size
Conditions: HepG2 CAGA-GFP TGF-b/SMAD3 reporter, GFP fluorescence, 18 h, TGF-beta stimulated, 500 pg/mL final; series mostly up to 46.1 µM
Method in brief: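 HEPG2 CAGA-GFP, 1000 cells/well; 2 h settle, 37 C; cpd via pin tool; TGF-b 500 pg/mL final; 18 h, 37 C; GFP imaging ex488/em500-530; %Activity normalised to -TGF-b and +DMSO controls; CRC fit, curve class.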
For `CC(C)(C)n1ncc2c(=O)n(Cc3ccccc3)cnc21`, the Potency was “inactive”.
In the case of `Cc1onc(-c2ccccc2Cl)c1C(=O)Nc1ccc(F)c(F)c1`, the Potency is reported as “inactive”.
With `CC[C@]12c3[nH]c4ccc(Cl)cc4c3CCN1C(=O)[C@@H](CC(=O)NCc1ccc(OC)c(OC)c1)C[C@@H]2C(=O)N1CCN(C(=O)C2CC2)CC1` the Potency was “inactive”.
For `Cc1ccc(-n2nc3ccc(NC(=O)c4cccc([N+](=O)[O-])c4C)cc3n2)cc1`, the Potency was inconclusive: 20 µM [inhibitor, partial curve, poor fit].
In the case of `CCC(C)NC(=O)c1c(N)n(/N=C/c2cccnc2)c2nc3ccccc3nc12` (configuration not stated), the Potency is reported as “inactive”.
With `O=[N+]([O-])c1cc2c(cc1/C=N/n1c(-c3ccccn3)n[nH]c1=S)OCO2` the Potency was inconclusive: 35.5 µM [inhibitor, single point].
In the case of `Nc1c(OS(=O)(=O)c2ccccc2)cccc1OS(=O)(=O)c1ccccc1`, the Potency is reported as “inactive”.
For `N#Cc1cc2ccccc2nc1N`, the Potency was inconclusive: 35.5 µM [inhibitor, single point].
For `COc1ccc(S(=O)(=O)N2CCCCCC2)cc1N(C)S(=O)(=O)c1ccc(Cl)cc1`, the Potency was inconclusive: 25.1 µM [inhibitor, single point].
For `OCC[C@@H]1C[C@H](O)[C@@H](O)[C@@]2(CCCc3ccccc3O2)O1`, the Potency was “inactive”.
In the case of `CCc1ccc(C(=O)COC(=O)CNC(=O)CNC(=O)Cc2ccccc2)cc1`, the Potency is reported as inconclusive: 35.5 µM [inhibitor, single point].
With `CCO[C@H]1OC(C(=O)N2CCN(Cc3ccccc3)CC2)=C[C@@H](c2cn(C(C)=O)c3ccccc23)[C@@H]1CCCO` the Potency was inconclusive: 25.1 µM [inhibitor, single point].
In the case of `NC(=O)C1CCN(C2=C(NS(=O)(=O)c3ccccc3)C(=O)c3ccccc3C2=O)CC1`, the Potency is reported as inconclusive: 15.8 µM [inhibitor, single point].
For `CCCN1CCC(N2CCN(c3ccc([N+](=O)[O-])cc3)CC2)CC1`, the Potency was “inactive”.
With `CC(=O)Oc1ccc2c(=O)c(N3C(=O)c4ccccc4C3=O)c(C)oc2c1` the Potency was inconclusive: 3.98 µM [inhibitor, single point].
For `O=C(Cn1ncc(Cl)c(Cl)c1=O)c1ccc(Cl)cc1`, the Potency was inconclusive: 15.8 µM [inhibitor, single point].
With `CCC1CCCCN1S(=O)(=O)c1ccc(NC(=O)c2snnc2C)cc1` (configuration not stated) the Potency was inconclusive: 12.6 µM [inhibitor, partial curve, poor fit].
For `COc1cccc(-n2c(=O)c3c4c(sc3n(Cc3ccccc3C#N)c2=O)CCCC4)c1`, the Potency was “inactive”.
For `CCN1CCN(c2ccc(NC(=O)c3cccc(S(=O)(=O)N4CCCC4)c3)cc2)CC1`, the Potency was “inactive”.
With `Cc1cc(SCC(=O)c2ccccc2)n2ncc(-c3ccccc3)c2n1` the Potency was “inactive”.
With `COc1ccc(OC)c(CCNC(=O)CSc2ccsc2[N+](=O)[O-])c1` the Potency was “inactive”.
For `CCC(C)(C)n1nnnc1C(c1ccc(C)cc1)N1CCCC1` (configuration not stated), the Potency was “inactive”.
With `COC(=O)CCN1CCC2CC1c1cc(Cl)ccc12` (configuration not stated) the Potency was “inactive”.
For `CC(=O)Nc1ccc(S(=O)(=O)NC2=C(N3CCN(c4ccc(F)cc4)CC3)C(=O)c3ccccc3C2=O)cc1`, the Potency was active: 11.2 µM.
With `O=C(CN1C(=O)c2ccccc2S1(=O)=O)c1ccc2c(c1)OCCCO2` the Potency was inconclusive: 6.31 µM [inhibitor, single point].
For `COc1ccc(C(=O)CC2(O)C(=O)N(CCc3ccccc3)c3ccc(Br)cc32)cc1OC` (configuration not stated), the Potency was inconclusive: 12.6 µM [inhibitor, partial curve, poor fit].
With `COc1ccc(/C=N/NC(=O)c2cccc(OC(F)(F)C(F)F)c2)c(OC)c1OC` the Potency was “inactive”.
For `COc1cc(CN(C(=O)c2ccc(C)cc2)c2ccccn2)cc(OC)c1OC`, the Potency was “inactive”.
For `CCOC(=O)N1CCC(NC(=O)CC2C(=O)NCCN2Cc2ccccc2)CC1` (configuration not stated), the Potency was inconclusive: 35.5 µM [inhibitor, single point].
In the case of `CC1=NN(C(=O)c2ccc(Cn3nc(C)c([N+](=O)[O-])c3C)cc2)C(O)(C(F)(F)F)C1` (configuration not stated), the Potency is reported as inconclusive: 20 µM [inhibitor, single point].
In the case of `COc1ccc2cc(C(=O)NCc3ccccc3CN3CCCC3)ccc2c1`, the Potency is reported as inconclusive: 35.5 µM [inhibitor, single point].
With `COc1ccc(-c2c(C#Cc3ccc(N(C)C)cc3)c3ccccc3n2C)cc1` the Potency was inconclusive: 35.5 µM [inhibitor, single point].
For `CC(C)(C)C(=O)Nc1ccccc1C(=O)Nc1cccnc1`, the Potency was “inactive”.
For `CCOc1ccccc1/C=C/c1onc(C)c1S(=O)(=O)N1CCC(C(=O)N2CCCCC2)CC1`, the Potency was inconclusive: 0.224 µM [inhibitor, full curve, poor fit].
In the case of `CCNC(=S)N1CCN(S(=O)(=O)c2ccc(C)c(C)c2)CC1`, the Potency is reported as inconclusive: 12.6 µM [inhibitor, partial curve, poor fit].
With `COC(=O)c1sc(NC(=O)c2ccncc2)nc1C` the Potency was inconclusive: 0.891 µM [inhibitor, full curve, poor fit].
For `O=C(O)CC(c1ccc(Cl)cc1)N1C(=O)CCC1=O` (configuration not stated), the Potency was inconclusive: 0.794 µM [inhibitor, full curve, poor fit].
For `Cc1ccc(C2=NN(CCC(=O)NCCc3cccc(C)c3)C(=O)CC2)cc1`, the Potency was inconclusive: 5.62 µM [inhibitor, single point].
In the case of `CN(CC(=O)Nc1ccccc1Sc1ccccc1)Cc1nc2ccccc2c(=O)[nH]1`, the Potency is reported as inconclusive: 10 µM [inhibitor, partial curve, poor fit].
With `O=C(Cc1ccc(Cl)cc1)Nc1cccc(S(=O)(=O)Nc2ccccc2F)c1` the Potency was inconclusive: 22.4 µM [inhibitor, partial curve, poor fit].
For `Oc1ccc(/C=C/c2nc(-c3ccccc3O)n(-c3ccccc3)n2)cc1`, the Potency was inconclusive: 35.5 µM [inhibitor, single point].
In the case of `O=C(CSc1nnc(-c2c[nH]c3ccccc23)o1)c1ccc(-c2ccccc2)cc1`, the Potency is reported as inconclusive: 35.5 µM [inhibitor, single point].
For `CC(C)C(CCNCc1ccccn1)c1ccc(Cl)cc1` (configuration not stated), the Potency was inconclusive: 35.5 µM [inhibitor, partial curve, poor fit].
For `Cc1ccc(NC(=O)CSc2nnc3[nH]c(=O)cc(C)n23)cc1Cl`, the Potency was “inactive”.
In the case of `O=C1C2CC=C(Cl)CC2C(=O)N1CCCCCCN1C(=O)C2CC=C(Cl)CC2C1=O` (configuration not stated), the Potency is reported as inconclusive: 35.5 µM [inhibitor, single point].
For `CCC(Sc1nc2c(sc3ccccc32)c(=O)n1CCCC(=O)NC1CCCC1)C(=O)Nc1cccc(OC)c1` (configuration not stated), the Potency was inconclusive: 35.5 µM [inhibitor, partial curve, poor fit].
With `Fc1ccc(Oc2nc(-c3ccccn3)nc3ccccc23)cc1` the Potency was inconclusive: 15.8 µM [inhibitor, single point].
In the case of `Cc1c(C(=O)Oc2ccc(-c3cnc4ccccc4n3)cc2)cccc1[N+](=O)[O-]`, the Potency is reported as “inactive”.
With `O=C(CSc1nc(-c2ccccc2)[nH]c1-c1ccccc1)Nc1ccc2c(c1)OCO2` the Potency was active: 11.2 µM.
For `COc1cc2c(cc1OC)C1(C)N(CC2)C(C(C)=O)=NN1c1ccc(Cl)cc1` (configuration not stated), the Potency was inconclusive: 15.8 µM [inhibitor, single point].
With `COc1ccccc1Cn1c(CNS(=O)(=O)c2ccc3c(c2)CCCC3)nc2cccnc21` the Potency was inconclusive: 22.4 µM [inhibitor, partial curve, poor fit].
In the case of `O=C(NCc1ccccc1)C1=C[C@H](C2CCCCC2)C[C@H](OCc2ccc(CO)cc2)O1`, the Potency is reported as inconclusive: 15.8 µM [inhibitor, single point].
For `CC(C)(C)C1CCc2c(sc(NC(=O)Cn3nnc(-c4cccc(C(F)(F)F)c4)n3)c2C#N)C1` (configuration not stated), the Potency was “inactive”.
With `Cc1ccc(/C(O)=C/C(=O)C(=O)NNC(=O)C(O)(c2ccccc2)c2ccccc2)cc1` the Potency was inconclusive: 25.1 µM [inhibitor, partial curve, poor fit].
With `COc1nc(N)nc2nc[nH]c12` the Potency was “inactive”.
For `CCN1CCSc2ccc(C(=O)NCc3cccc(F)c3)cc21`, the Potency was inconclusive: 7.94 µM [inhibitor, partial curve, poor fit].
In the case of `CC(=O)Nc1cc2c3c(c1)CCN3C(=O)CC2`, the Potency is reported as inconclusive: 6.31 µM [inhibitor, single point].
In the case of `Cc1ccc(C(=O)Nc2ccc3c(c2)N(C)C(=O)c2ccccc2S3)cc1`, the Potency is reported as inconclusive: 20 µM [inhibitor, single point].
With `CC(=NNC(=S)N1CCCCC1)c1cccc(C)n1` the Potency was active: 0.355 µM.
For `COc1ccc(NC(=O)N2CCCc3cccc(C)c32)cc1`, the Potency was inconclusive: 15.8 µM [inhibitor, single point].
For `CCC1CCCCN1CCCNC(=O)c1ccc2c(c1)N(Cc1ccccc1F)C(=O)c1ccccc1S2(=O)=O` (configuration not stated), the Potency was active: 11.2 µM.
With `C/C(=N\Nc1ccc(Cl)cc1)c1c(O)cc(C)oc1=O` the Potency was “inactive”.
For `O=C(OCc1cccc(C(F)(F)F)c1)c1cc([N+](=O)[O-])ccc1N1CCOCC1`, the Potency was inconclusive: 15.8 µM [inhibitor, single point].
For `CN(C)CC1CC/C(=C\c2ccc(O)cc2)C1=O` (configuration not stated), the Potency was inconclusive: 0.631 µM [inhibitor, full curve, poor fit].
With `CC(c1ccccc1)n1c(-c2ccc(C(C)(C)C)cc2)n[nH]c1=S` (configuration not stated) the Potency was inconclusive: 35.5 µM [inhibitor, single point].
With `C(=C\c1ccccc1)/CN1CCN(C(c2cccs2)c2nnnn2C2CCCC2)CC1` (configuration not stated) the Potency was inconclusive: 17.8 µM [inhibitor, single point].
In the case of `COc1cccc(NC(=O)CN(C)S(=O)(=O)c2cccs2)c1`, the Potency is reported as “inactive”.
